Measurements from PMC4336329 (PLoS ONE, 2015).
In all, about 310,000 compounds went through this assay and about 14,000 (4.5%) showed an effect of 50% or more. The effect is printed as a negative number. The list shows a part of the results.

Each compound was assayed against human ether-à-go-go-related gene (hERG) potassium channel (human, UniProt Q12809) (assay: primary screen, population patch clamp on CHO cells stably expressing hERG).
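Note: peak tail current of the secondary pulse compared with the same well before compound.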

Chain of human ether-à-go-go-related gene (hERG) potassium channel (Q12809 whole entry, looked up): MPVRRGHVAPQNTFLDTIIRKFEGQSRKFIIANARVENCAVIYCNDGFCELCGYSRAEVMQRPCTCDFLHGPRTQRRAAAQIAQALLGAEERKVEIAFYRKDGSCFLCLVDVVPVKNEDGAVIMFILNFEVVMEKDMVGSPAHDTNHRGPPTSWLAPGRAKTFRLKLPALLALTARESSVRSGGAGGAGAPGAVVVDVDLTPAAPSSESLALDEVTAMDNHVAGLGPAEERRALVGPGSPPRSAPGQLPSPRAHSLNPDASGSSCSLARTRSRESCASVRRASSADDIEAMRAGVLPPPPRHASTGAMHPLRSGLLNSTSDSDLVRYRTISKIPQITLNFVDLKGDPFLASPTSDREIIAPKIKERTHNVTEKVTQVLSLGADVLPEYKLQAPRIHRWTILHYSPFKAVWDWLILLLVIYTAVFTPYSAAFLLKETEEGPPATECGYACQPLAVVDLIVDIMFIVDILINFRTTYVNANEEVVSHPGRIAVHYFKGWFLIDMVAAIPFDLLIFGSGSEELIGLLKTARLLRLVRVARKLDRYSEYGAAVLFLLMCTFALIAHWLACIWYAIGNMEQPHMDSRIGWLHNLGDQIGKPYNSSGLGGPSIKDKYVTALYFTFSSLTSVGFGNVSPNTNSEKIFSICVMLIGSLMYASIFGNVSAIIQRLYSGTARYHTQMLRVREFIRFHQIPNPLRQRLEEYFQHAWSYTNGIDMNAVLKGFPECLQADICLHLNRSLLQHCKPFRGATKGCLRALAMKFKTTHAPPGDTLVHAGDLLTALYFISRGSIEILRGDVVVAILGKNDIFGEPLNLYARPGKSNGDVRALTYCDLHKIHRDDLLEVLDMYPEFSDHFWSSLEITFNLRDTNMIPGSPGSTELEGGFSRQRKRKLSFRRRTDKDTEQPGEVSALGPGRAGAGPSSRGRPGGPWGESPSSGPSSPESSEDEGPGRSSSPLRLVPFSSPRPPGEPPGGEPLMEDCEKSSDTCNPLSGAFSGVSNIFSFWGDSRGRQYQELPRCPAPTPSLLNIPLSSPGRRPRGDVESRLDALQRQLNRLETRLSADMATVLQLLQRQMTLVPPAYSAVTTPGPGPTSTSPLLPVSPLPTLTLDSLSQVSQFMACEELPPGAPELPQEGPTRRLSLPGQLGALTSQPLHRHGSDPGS

Structure (SMILES)	hERG current change (%, negative = inhibition) at 10uM [%]
COc1ccccc1N1CC(C(=O)NCCN2C(=O)S/C(=C\c3cccnc3)C2=O)CC1=O (stereo not shown)	1.78
Cc1cc(NS(=O)(=O)c2ccc(NC(=O)CCCC(=O)O)cc2)nc(C)n1	10.4
O=c1[nH]c(SCc2ccc(Cl)cc2)nc2ccsc12	-67
Cc1nc(CNS(=O)(=O)c2ccccc2F)cs1	4.37
O=C(NCC(c1ccco1)N1CCCC1)c1ccc(Cl)c(S(=O)(=O)N2CCc3ccccc32)c1 (stereo not shown)	-51
CCCSc1nnc(-c2cccc(S(=O)(=O)N(C)C)c2)n1-c1cc(OC)ccc1OC	-68.2
O=C(NCN1CCN(c2ccccc2F)CC1)c1ccccc1	-4.76
COc1ccc(-c2nc3c(s2)CCc2onc(-c4ccc(Br)cc4)c2-3)cc1	10.2
COC(=O)[C@@H](NCc1cccc(CN[C@H](C(=O)OC)C(C)C)c1)C(C)C	6.01
CCC1=NN(C(=O)COc2ccccc2C)C(O)(c2ccncc2)C1 (stereo not shown)	-7.5
Cc1ccc(NC(=O)CN2CCN(Cc3ccccc3)CC2)cc1F	-71.2
CC(C)(C)c1nc2ccccc2c2nnc(SCC(=O)Nc3nc4ccccc4s3)n12	5.82
COc1ccc(N2Cc3cccc(C(=O)N4CCOCC4)c3C2=O)cc1	-11.8
CCOC(=O)C1C(=O)C=C(c2cccs2)CC1c1ccccc1 (stereo not shown)	3.93
CCOc1ccccc1NC(=O)Nc1ccc(Br)cn1	-4.01
Cc1ccc(OCC(O)CN2CCN(CC(O)COc3ccc(C)cc3)CC2)cc1 (stereo not shown)	-63.9
COCCNc1cc(C)nc2ccccc12.Cl	-10.8
CC1=C(C(=O)N2CCOCC2)C(c2cc(C)cs2)NC(=O)N1 (stereo not shown)	5.45
COC(=O)c1cnc(Oc2ccc(NC(=O)NC(=O)c3c(OC)cccc3OC)cc2)cc1C(F)(F)F	-14.1
Cc1cc(C)nc(SCC(=O)N/N=C\c2sccc2C)n1	4.22
O=C(COc1ccccc1)NCCSCc1ccco1	13.6
Cc1cnccc1CN(C)Cc1cn(C)nc1-c1cccc(Cl)c1	-12.3

Structure (SMILES)	hERG current change (%, negative = inhibition) at 10uM [%]
Cc1oc2cc(OCc3cnn(-c4ccccc4)c3)ccc2c(=O)c1Oc1ccccc1F	-11.2
Cc1ccc(NC(=O)C/C(N)=N/O)cc1C	6.96
CC(=O)c1c(N2CCOCC2)nc(=S)n(-c2ccccc2)c1C	2.4
O=S(=O)(NCc1ccc2c(c1)OCO2)c1ccc(Cl)s1	-20.6
COc1ccc(C(=O)N2CCC(C(=O)O)CC2)c2ccccc12	-8.49
COc1ccc(CCNC(=O)CS(=O)(=O)c2cn(CC(=O)N(C(C)C)C(C)C)c3ccccc23)cc1OC	2.18
CCOC(=O)N1CCN(C(=O)c2ccc(Cl)c(S(=O)(=O)Nc3ccccc3)c2)CC1	-1.35
CCOc1cc(/C=C(\C#N)C(=O)Nc2ccccc2C(=O)O)ccc1OC(=O)c1ccc(C)cc1	24.8
Cl.FC(F)(F)c1cccc(N2CCNCC2)c1	-13.3
COCCNc1nc(-c2ccc(OC)cc2)c(-c2ccc(OC)cc2)s1	15.3
CN1C[C@H](C(=O)NC2(C)OC3(O)[C@@H]4CCCN4C(=O)[C@H](Cc4ccccc4)N3C2=O)CC2c3cccc4[nH]cc(c34)C[C@H]21.CS(=O)(=O)O (stereo partly shown)	-3.57
CC(C)NC(=O)/C(=C/c1cn(-c2ccccc2)nc1-c1cccc([N+](=O)[O-])c1)NC(=O)c1ccccc1	1.56
COCc1nc(-c2cc(OC)c(OC)c(OC)c2)no1	-16.3
O=C(/C=C/c1ccc(Cl)cc1)NCCCN1CCOCC1	-71
O=C(Nc1ccc(N2CCOCC2)c(F)c1)c1cccs1	1.9
O=C1Nc2ccccc2C1=Nc1ccc(S(=O)(=O)Nc2nccs2)cc1	26.5
CCCn1c(=O)c2ccccc2n2c(SCCOc3ccc(Cl)cc3)nnc12	-18.1
Cc1ccc(CNC(=O)CCCc2cn(C)c3ccccc23)cc1	19.8
CN1[C@H]2CC[C@@H]1C(C(=O)N1CCOCC1)=C(O)C2	16.7
O=C(N/N=C/c1cccc2ccccc12)c1ccncc1	-15.5
COc1cc([N+](=O)[O-])cc(/C=N/NC(=O)CSc2ccccn2)c1O	13.6
